Laboratory results as given in PubChem BioAssay AID651820 (National Center for Advancing Translational Sciences (NCATS), 2012).
Several values for one entry are separate records, joined by “and”; a condition that tells them apart may be missing. Identical values can stand only once. The whole screen tested about 340,000 compounds, of which about 12,000 (3.5%) were called active. The shares of active, inactive and inconclusive entries below differ from those in the screen. Calls follow the shape of the dose curve; as a rule, active = well fitted inhibition curve with a large enough effect; inconclusive = small, poorly fitted or top-dose-only effect, or another doubt; inactive = no such curve, though single readings can be large or run the other way. Potencies beside an inconclusive call are fits to weak or partial responses and may not hold up.

Assay: qHTS Assay for Inhibitors of Hepatitis C Virus (HCV)
Details: Huh7.5.1 HCVcc-Cre (HCVcc is cell-culture hepatitis C virus) infection, luciferase reporter, 44 h; activity change, negative = inhibition: at 41.8 µM (top of the series) unless noted
In short: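 Antiviral activity was scored by luciferase reporter output from cells infected with HCVcc-Cre (~0.5 moi) in presence of compound, 44 h infection period, cells seeded 1,000/well 4 h prior.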
% is scaled to controls: 0 for no effect and ±100 for the full control effect; potency is read from the fitted curve at half-maximal effect; tags tell the direction and shape of the fitted curve.

| SMILES | Potency | activity change, negative = inhibition |
| --- | --- | --- |
| CCOC(=O)c1ccc2c(c1)nc(SCC(=O)c1cc3ccccc3o1)n2CC | inconclusive: 5.62 µM [inhibitor, partial curve] |  |
| COC(=O)C1=C(c2cc3ccccc3o2)C[C@@H]2CC[C@H]1N2C(=O)N1CCC(C)CC1 | inconclusive: 22.4 µM [inhibitor, single point] |  |
| COc1ccc2cc3c(N)nn(C(=O)c4cccc(F)c4)c3nc2c1 |  | inactive: -4.37% |
| COc1ccc(C(=O)Nc2nc(-c3cccs3)cs2)cc1 | inconclusive: 8.91 µM [inhibitor, partial curve] |  |
| COc1ccc(/C=C2\COc3ccccc3C2=O)c(OC)c1 | inconclusive: 2.82 µM [inhibitor, full curve, poor fit] |  |
| Nc1nc(COC(=O)c2ccc3c(c2)OCCO3)nc(Nc2ccccc2)n1 | active: 11.2 µM |  |
| O=C(CN1CCC(O)(c2ccccc2F)CC1)NCCc1c[nH]c2ccccc12 | inconclusive: 31.6 µM [inhibitor, single point] |  |
| O=C(OCCNc1nc(-c2ccccc2)nc2ccccc12)c1cccnc1 | inconclusive: 14.1 µM [inhibitor, partial curve] |  |
| O=C(c1cc(C2CC2)nn1-c1ccccc1)N1CCN(S(=O)(=O)c2ccccc2)CC1 | inconclusive: 22.4 µM [inhibitor, single point] |  |
| Cc1ccc(C)c(C(=O)CC2(O)C(=O)Nc3ccccc32)c1 (centres undefined) | inconclusive: 31.6 µM [inhibitor, single point] |  |
| C=CCc1cccc(/C=N/NC(=O)C(C)Nc2cccc(C)c2)c1O (centres undefined) | inconclusive: 22.4 µM [inhibitor, single point] |  |
| OC1CCCN(Cc2ccc3ccc4cccc5ccc2c3c45)C1 (centres undefined) | inconclusive: 31.6 µM [inhibitor, partial curve] |  |
| CCC[C@@H](CN1CCC[C@H]1CN1C(N)=NC[C@@H]1Cc1ccccc1)N1C[C@@H]([C@H](C)CC)N(CCCC2CCCC2)C1=N | inconclusive: 20 µM [inhibitor, single point] |  |
| COc1cccc(C(=O)Nc2cc3c(cc2C(C)=O)OCCO3)c1 | inconclusive: 31.6 µM [inhibitor, single point] |  |
| O=C(NCCc1ccccc1)C1CCCN(C(=O)Nc2ccc(F)cc2)C1 (centres undefined) | inconclusive: 2 µM [inhibitor, full curve] |  |
| Cc1nn2c(-c3ccccc3)ccnc2c1-c1ccccc1 | inconclusive: 14.1 µM [inhibitor, single point] |  |
| CC(CN1CCOCC1)OC(=O)c1cccc(Br)c1 (centres undefined) |  | inactive: 24.2% |
| C/C(=N/NC(=O)Cc1cccc2ccccc12)c1cccs1 |  | inactive: -15.2% |
| CCOc1ccccc1NC(=O)C(NCC1(N2CCCCC2)CCCCC1)c1ccccc1 (centres undefined) | inconclusive: 31.6 µM [inhibitor, single point] |  |
| COc1ccc(/C=N/NC(=O)c2ccn[nH]2)cc1Cn1nc(C)c([N+](=O)[O-])c1C | inconclusive: 11.2 µM [inhibitor, partial curve] |  |
| CC1CCCN(CCSc2ccc(Cl)cc2)C1 (centres undefined) | inconclusive: 5.62 µM [inhibitor, single point] |  |
| Cc1nc2c(C)cccc2cc1C(=O)N/N=C/c1cccc([N+](=O)[O-])c1 | inconclusive: 12.6 µM [inhibitor, partial curve] |  |
| Cc1ccc(C(CC(=O)O)NC(=O)CCNC(=O)c2ccco2)cc1 (centres undefined) |  | inactive: 9.51% |

| SMILES | Potency | activity change, negative = inhibition |
| --- | --- | --- |
| COc1ccc(NC(=O)c2cc3ccccc3o2)cc1S(=O)(=O)N1CCCCC1 | inconclusive: 0.562 µM [inhibitor, full curve] |  |
| Cn1c(=O)n(C)c2cc([N+](=O)[O-])c(N3CCN(C(=O)c4ccccc4Cl)CC3)cc21 | inconclusive: 11.2 µM [inhibitor, partial curve] |  |
| O=C(Nc1ccc(Cl)c(S(=O)(=O)N2CCOCC2)c1)c1cc(=O)[nH]c2ccccc12 | inconclusive: 0.501 µM [inhibitor, full curve, poor fit] |  |
| CCOC(=O)c1cnc(SSc2ncc(C(=O)OCC)c(N)n2)nc1N | inconclusive: 31.6 µM [inhibitor, single point] |  |
| CN1CCN(c2ccc([N+](=O)[O-])cc2C(=O)c2ccc(Cl)cc2)CC1 | inconclusive: 8.91 µM [inhibitor, partial curve] |  |
| CCC1SC2=NC(C)=C(C(=O)OC)C(c3cccs3)N2C1=O (centres undefined) | inconclusive: 10 µM [inhibitor, partial curve, poor fit] |  |
| CC(C)CC(=O)Nc1ccc2c(c1)oc1ccccc12 | active: 22.4 µM |  |
| O=C(CN1CCN(Cc2ccccc2)CC1)Nc1ccc([N+](=O)[O-])cc1C(=O)Nc1ccccc1F | inconclusive: 14.1 µM [inhibitor, single point] |  |
| COc1ccc(C(=O)/C=C/c2ccc(OC)c(Cn3nnc4ccccc43)c2)cc1 |  | inactive: -24.7% |
| CCC(=O)N(Cc1ccco1)c1nc(-c2ccccc2)cs1 | inconclusive: 8.91 µM [inhibitor, partial curve] |  |
| COCCN(Cc1nc(-c2ccc(-c3ccccc3)cc2)oc1C)C(C)C | inconclusive: 22.4 µM [inhibitor, single point] |  |
| CC1CCCCN1CCNC(=O)c1ccc2c(=O)n(Cc3ccc(Cl)cc3)c(=S)[nH]c2c1 (centres undefined) | active: 2.24 µM |  |
| c1ccc2c(c1)N1CCN=C1N2CCN1CCCCC1 | inconclusive: 25.1 µM [inhibitor, single point] |  |
| CCOC(=O)c1c(-c2ccccc2)csc1NC(=O)C(C)NCc1ccco1 (centres undefined) | inconclusive: 31.6 µM [inhibitor, single point] |  |
| Cc1ccc(S(=O)(=O)NC(CC(=O)O)c2cccs2)cc1 (centres undefined) |  | inactive: 20.3% |
| CCN(CC(=O)Nc1ccc(OC)cc1)C(=O)c1ccccc1Sc1ccccc1C#N | active: 22.4 µM |  |
| Cc1ccc(NC(=O)C2CCCN2C(=O)OCc2ccccc2)c(O)c1 (centres undefined) |  | inactive: -6.58% |
| CN(C)c1ccc(C(=O)OCC(=O)NC2CCCCCC2)cc1 | inconclusive: 11.2 µM [inhibitor, single point] |  |
| NC(=NCCCCCCN=C(N)/N=C(\N)Nc1ccc(Cl)cc1)/N=C(\N)Nc1ccc(Cl)cc1 | inconclusive: 22.4 µM [inhibitor, single point] and inconclusive: 12.6 µM [inhibitor, single point] |  |
| Cc1ccc(N(CC(=O)NCc2ccco2)C(=O)CCC(=O)Nc2nccs2)cc1 | inconclusive: 31.6 µM [inhibitor, single point] |  |
| COc1ccc(NC(=O)CC(C)=O)c(OC)c1 |  | inactive: -10.8% |
| COc1cc(CCCN2CCNC[C@@H]2Cc2ccc(O)cc2)cc(OC)c1OC |  | inactive: 49.4% |
| O=C(c1ccccc1Sc1ccccc1[N+](=O)[O-])N1CCCCC1 |  | inactive: -13.4% |

| SMILES | Potency | activity change, negative = inhibition |
| --- | --- | --- |
| CCOc1cc(C=NNC(=O)c2cccc(S(=O)(=O)N3CCCC3)c2)ccc1O |  | inactive: -16.9% |
| C=Cn1c(C(=O)O)ccc1-c1ccc(CC)cc1 |  | inactive: 17.7% |
| Cc1ccc(CN(c2ccc(C(=O)NCc3ccc4c(c3)OCO4)cc2)S(C)(=O)=O)cc1 |  | inactive: -2.03% |
| CCN(CC)c1ccc(/C=C2\CCC(/C=N/NC(=O)c3ccc(=O)n(C)c3)=C2N2CCOCC2)cc1 | inconclusive: 2.51 µM [inhibitor, full curve] |  |
| O=C(CSc1nnc(NC(=O)c2ccccc2F)s1)NC1CC1 | inconclusive: 3.16 µM [inhibitor, single point] |  |
| O=C(O)c1ccc(-n2ncc3c2/C(=C/c2cccc([N+](=O)[O-])c2)CC3)cc1 |  | inactive: -1.62% |
| Cc1cc(C)c(S(=O)(=O)NCC2CCC(C(=O)NCCCN3CCC(C)CC3)CC2)c(C)c1 (centres undefined) | inconclusive: 22.4 µM [inhibitor, single point] |  |
| CN(C)c1ccc(/C=C/C=N/Nc2nc(N3CCOCC3)nc(N3CCOCC3)n2)cc1 |  | inactive: -29.8% |
| COc1ccc(-c2nc(SCC(=O)Nc3cccc(S(N)(=O)=O)c3)n[nH]2)cc1 | inconclusive: 22.4 µM [inhibitor, single point] |  |
| CC(=C/c1ccccc1)/C=N/NC(=O)c1cc(C)oc1C | inconclusive: 3.16 µM [inhibitor, full curve] |  |
| CS(=O)(=O)c1ccc(C(=O)NCC2(N3CCOCC3)CCCCC2)cc1 |  | inactive: 0.139% |
| C/C(=N\O)C(=O)NCCCn1ccnc1 |  | inactive: 2.3% |
| CCOC(CNC(=O)c1cc2c(=O)n(CC)c3ccccc3c2s1)OCC | inconclusive: 10 µM [inhibitor, partial curve] |  |
| CCc1sc(C(=O)Nc2nc(C)cs2)cc1C | inconclusive: 31.6 µM [inhibitor, single point] |  |
| CC(C)(C)C(=O)OCc1nc(-c2ccc(O)c(O)c2)cs1 |  | inactive: -67.3% |
| COc1ccccc1N(CCC#N)C(=O)CSc1nnc2ccccn12 |  | inactive: -3.4% |
| COc1cccc(-n2cnc3scc(-c4cccs4)c3c2=O)c1 | active: 11.2 µM |  |
| CCNc1nc(NCC)n2c(SCC(=O)c3ccccc3F)nnc2n1 | inconclusive: 22.4 µM [inhibitor, single point] |  |
| COc1ccc(-c2oc3ccccc3c(=O)c2OC(C)=O)cc1 | inconclusive: 14.1 µM [inhibitor, partial curve] |  |
| Cc1ccc(C)c(N2CCN(C(=O)c3cc4c(C)nc5ccccc5c4o3)CC2)c1 | inconclusive: 31.6 µM [inhibitor, single point] |  |
| CCC(C)(C(=O)NC1CCCCC1)N(Cc1ccco1)C(=O)CNC(=O)c1ccccc1 (centres undefined) |  | inactive: -22.6% |
| COc1ccc(OC)c(N=Nc2c(O)c3ccccc3[nH]c2=O)c1 | inconclusive: 22.4 µM [inhibitor, single point] |  |
| Cc1ccc(CNC(=O)CN(C)C2=NS(=O)(=O)c3ccccc32)cc1 | inconclusive: 14.1 µM [inhibitor, single point] |  |
